PubChem BioAssay AID624417 (National Center for Advancing Translational Sciences (NCATS), 2012)
Out of some 410,000 compounds screened, about 6,400 (1.6%) were called active. Inconclusive means that the source gave no clear call. Such entries were picked first, then a sample of the others. The call rests on the fitted dose curve; in most records, active means well fitted inhibition curve with a large enough effect; inconclusive means small, poorly fitted or top-dose-only effect; inactive means no such curve, though single readings can be large or run the other way. Potencies of inconclusive entries are left out as doubtful fits.

Each molecule was assayed against Glucagon-like peptide 1 receptor (Homo sapiens) (UniProt P43220) (assay: qHTS of GLP-1 Receptor Inverse Agonists (Inhibition Mode)). Conditions: HEK293 GLP-1R CRE-luciferase, luminescence, 24 h, GLP-1R form is constitutively active; activity change, negative = inhibition: at 38.3 µM (top of the series) unless noted.
Summary of the method: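 Inverse agonists were sought by their lowering of basal cAMP reporter luciferase output in HEK293 cells stably carrying constitutively active human GLP-1R, after 24 h compound treatment.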
Further: nearly all actives have a fitted effect of over 55% in size.
On the % scale 0 is the no-effect control and ±100 the full control effect; potency means the concentration at half of the fitted maximal effect; tags describe the fitted curve by direction and shape.

Chain of UniProt P43220 (P43220 whole entry, looked up): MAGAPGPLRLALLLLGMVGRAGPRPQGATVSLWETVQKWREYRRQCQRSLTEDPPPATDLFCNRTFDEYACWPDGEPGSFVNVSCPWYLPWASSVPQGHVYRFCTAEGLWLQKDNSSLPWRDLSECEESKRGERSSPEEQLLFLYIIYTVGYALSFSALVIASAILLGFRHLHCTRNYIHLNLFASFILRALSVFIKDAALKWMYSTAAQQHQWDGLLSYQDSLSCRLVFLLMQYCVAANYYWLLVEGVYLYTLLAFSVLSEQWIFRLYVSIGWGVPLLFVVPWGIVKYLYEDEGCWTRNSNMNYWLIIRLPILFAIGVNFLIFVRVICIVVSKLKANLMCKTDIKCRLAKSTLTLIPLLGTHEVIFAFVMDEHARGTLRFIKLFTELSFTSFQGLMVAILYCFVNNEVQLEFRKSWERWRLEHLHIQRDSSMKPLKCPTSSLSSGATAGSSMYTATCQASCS

SMILES | activity change, negative = inhibition | Potency
O=C(Nc1nnc(C2CCCCC2)s1)c1ccc(Br)s1 | inactive: 39.7% | –
CN(C)CCN(C(=O)c1ccc2c(c1)OCCO2)c1nc2c(Cl)cccc2s1 | – | inconclusive [inhibitor, partial curve, poor fit]
C#CCNC(=O)/C=C/c1ccc(C)cc1 | inactive: 10.4% | –
CC(C)NC(=O)c1cc(C2CCCCN2C(=O)c2ccc(C(C)C)cc2)on1 (configuration not stated) | – | inconclusive [inhibitor, single point]
O=C1C(=O)c2c(ccc3ccccc23)-c2ccccc21 | – | inconclusive [inhibitor, full curve, poor fit]
COC(=O)CNC(c1ccccc1)c1cc(Br)ccc1NS(=O)(=O)c1ccc(C)cc1 (configuration not stated) | – | inconclusive [inhibitor, partial curve, poor fit]
CC1CNCCN1S(=O)(=O)c1cccc2cnccc12 (configuration not stated) | – | inconclusive [inhibitor, partial curve, poor fit]
O=C(c1ccccc1)[C@@H]1[C@@H](C(=O)c2ccc(F)cc2)[C@@]2(C(=O)Nc3ccccc32)[C@H]2c3ccccc3C=CN12 | – | inconclusive [inhibitor, single point]
CCCC1=Nc2cc(C(=O)NCCOC)ccc2Sc2ccccc21 | – | active: 2.24 µM
COc1ccc(C2CC(c3ccccc3OC(=O)/C=C/c3ccccc3)=NN2C(C)=O)cc1 (configuration not stated) | – | inconclusive [inhibitor, partial curve, poor fit]
Cc1ccc(C)c(OCC(=O)N(Cc2nnc(-c3ccccc3Cl)o2)C2CC2)c1 | – | inconclusive [inhibitor, partial curve, poor fit]
CCN(CC)CCOCCOc1cc(C)c(Cl)c(C)c1 | – | inconclusive [inhibitor, partial curve]
O=C(CCc1ccccc1)N[C@@H]1c2ccccc2CC[C@H]1OCc1ccccc1 | – | inconclusive [inhibitor, single point]
Cc1ccc(S(=O)(=O)N2CC(O)C[C@H]2C(=O)OCC(=O)N2CCN(c3ccc(F)cc3)CC2)cc1C (some centres not stated) | – | inconclusive [inhibitor, single point]
O=C1NN(c2ccccc2)C(=O)/C1=C/c1ccc(Sc2ccc(Cl)cc2)o1 | – | inconclusive [inhibitor, full curve, poor fit]
CCn1nc(C)c(NC(=O)CCSc2nc(-c3ccco3)cc(C(F)(F)F)n2)c1C | – | inconclusive [inhibitor, single point]
Cc1c(Cl)cccc1NC(=O)Nc1ccc2snnc2c1 | – | inconclusive [inhibitor, single point]
C/C(=N\NC(=S)NC(C)C)c1ccc(Cl)s1 | – | inconclusive [inhibitor, partial curve, poor fit]
CCCn1c(-c2nonc2N)nc2ccccc21 | – | inconclusive [inhibitor, partial curve]
O=C(NCCc1ccccc1)c1ccc(CS(=O)(=O)c2ccc(Cl)cc2)o1 | – | inconclusive [inhibitor, single point]
CNCCC(Oc1ccccc1OC)c1ccccc1 (configuration not stated) | – | inconclusive [inhibitor, single point]

SMILES | activity change, negative = inhibition | Potency
O=C(NCC1CCCO1)C1CC1(c1ccccc1)c1ccccc1 (configuration not stated) | – | inconclusive [inhibitor, partial curve, poor fit]
O=S(=O)(NCc1cccnc1)c1ccc(Cl)c2ccccc12 | – | inconclusive [inhibitor, single point]
CC1CC(C)(C)n2c(O)c(N=NC(N)=S)c3cccc1c32 (configuration not stated) | – | active: 5.01 µM
O=C(Nc1nccs1)c1ccc(Br)cc1 | inactive: 18.7% | –
O=C(CSc1cn(CCNC(=O)c2cccs2)c2ccccc12)NC1CCCCC1 | – | inconclusive [inhibitor, partial curve, poor fit]
COc1ccc(C(O)(CCc2ccccc2)CCN2CCCCC2)cc1 (configuration not stated) | – | inconclusive [inhibitor, single point]
COC(=O)c1ccc(NC(=O)CN(Cc2ccccc2)S(=O)(=O)c2ccc(Cl)cc2)cc1 | – | active: 8.91 µM
CC(=O)N1CCN(C(=O)COC(=O)/C=C/c2ccc(C(F)(F)F)cc2)CC1 | – | inconclusive [inhibitor, full curve, poor fit]
CCCC(=O)Nc1ccc2nc(SCC(=O)Nc3ccc(N4CCOCC4)c(Cl)c3)sc2c1 | – | inconclusive [inhibitor, single point]
COc1ccc(-c2nc(CN3CCC(c4ccccc4)CC3)c(C)o2)cc1OC | – | inconclusive [inhibitor, partial curve, poor fit]
CCN(CC)C(=O)c1ccc(COc2ccccc2Cl)o1 | – | inconclusive [inhibitor, partial curve, poor fit]
O=c1[nH]ncc(N/N=C\c2cccnc2)c1Cl | inactive: 2.95% | –
COC(=O)c1ccc(CNC(=O)c2ccc(S(=O)(=O)N(C)c3ccccc3OC)cc2)cc1 | – | inconclusive [inhibitor, partial curve, poor fit]
COc1ccc(NS(=O)(=O)c2ccc(S(=O)(=O)N3CCCC3)cc2)cc1Cl | – | inconclusive [inhibitor, partial curve, poor fit]
O=C(C1CCCC1)N1CCN(S(=O)(=O)c2ccc(F)c(F)c2F)CC1 | – | inconclusive [inhibitor, partial curve, poor fit]
COC(=O)c1ccc2c(=O)n(CCCCCC(=O)N3CCN(c4ccc(Cl)cc4)CC3)c(=O)[nH]c2c1 | inactive: 2.46% | –
COc1ccc(C=C(C(=O)c2ccccc2)C(=O)c2ccccc2)cc1 | – | inconclusive [inhibitor, single point]
Cc1ccc(CCNC(=O)CCn2nc(-c3ccc(C)cc3)ccc2=O)cc1 | inactive: 3% | –
CC(=O)c1ccc(S(=O)(=O)N(C)CCCC(=O)NCc2ccc3c(c2)OCO3)cc1 | inactive: 10.3% | –
COc1ccccc1CCN1CCCC(CN(C)C(=O)CCC(=O)N(C)C)C1 (configuration not stated) | inactive: 13.6% | –
Cc1cc(C)c(S(=O)(=O)N2CCN(Cc3ccc4c(c3)OCO4)CC2)cc1C | – | inconclusive [inhibitor, partial curve]

SMILES | activity change, negative = inhibition | Potency
Cc1c(Cl)cccc1Nc1nn2c(=O)c3ccc(C(=O)NCCC4=CCCCC4)cc3nc2s1 | – | inconclusive [inhibitor, partial curve, poor fit]
CC(C)CC(c1nnnn1Cc1cccs1)N1CCN(c2nc3ccccc3s2)CC1 (configuration not stated) | – | inconclusive [inhibitor, partial curve, poor fit]
Cc1ccccc1-c1noc(-c2ccccc2C(=O)NCc2ccco2)n1 | – | inconclusive [inhibitor, single point]
CCCCCCOC(=O)c1ccc(NC(=O)c2cc(OC)c(OC)c(OC)c2Br)cc1 | – | inconclusive [inhibitor, partial curve, poor fit]
O=C(CNc1ccccc1)N/N=C/c1ccc2c(c1)OCO2 | – | inconclusive [inhibitor, partial curve]
Cc1ccc(CN(C)C(=O)c2cccc(S(=O)(=O)N3CCc4ccccc4C3)c2)o1 | – | inconclusive [inhibitor, single point]
Cc1ccc(-c2ccc(CN3C(CC(C)C)C(=O)N(Cc4cn(CCC5OCCCO5)nn4)CCS3(=O)=O)cc2)cc1 (configuration not stated) | – | inconclusive [inhibitor, single point]
O=C(Nc1ccccc1)O/N=C1\CCCCC1c1ccc([N+](=O)[O-])cc1[N+](=O)[O-] (configuration not stated) | – | inconclusive [inhibitor, partial curve, poor fit]
CCN(CC)c1ccc(-n2nc3cc(C)c(NC(=O)c4ccccc4C)cc3n2)c(C)c1 | – | inconclusive [inhibitor, full curve]
CCCCCn1c(CNC(=O)c2ccccc2)nc2ccccc21 | – | inconclusive [inhibitor, single point]
O=C(CSC1CC(=O)N(CCc2ccccc2)C1=O)Nc1ccc(Br)cc1 (configuration not stated) | – | inconclusive [inhibitor, single point]
O=[N+]([O-])c1ccc(/C([O-])=C(/C(=S)NCc2ccco2)[n+]2ccccc2)cc1 | – | inconclusive [inhibitor, single point]
Cc1ccsc1C(=O)OCC(=O)N(C)C1CCCCC1 | – | inconclusive [inhibitor, single point]
O=C(C[n+]1cc(Br)cc2ccccc21)c1ccccc1 | – | inconclusive [inhibitor, single point]
CN1CCN(CC(=O)Nc2nc(-c3ccccc3)cs2)CC1 | – | inconclusive [inhibitor, single point]
CCOc1ccc(C(=O)Nc2ccc(N3CCN(C)CC3)cc2)cc1 | inactive: -2.87% | –
O=C(CSc1nc(-c2ccco2)cc(C(F)(F)F)n1)N1CCN(c2ccc(Cl)cc2)CC1 | – | inconclusive [inhibitor, partial curve, poor fit]
CSCc1ccc(C(=O)NC2CC(C)(C)Cc3c2cnn3-c2ccc(F)cc2)o1 (configuration not stated) | – | inconclusive [inhibitor, partial curve, poor fit]
Cc1sc(=NC(=O)c2ccco2)n(C)c1-c1ccccc1 | – | inconclusive [inhibitor, single point]
CC1=C(C(=O)Nc2ccc(C)cc2C)C(c2ccc(Br)cc2)n2ncc(C(=O)Nc3cccc(C)c3)c2N1 (configuration not stated) | – | inconclusive [inhibitor, partial curve, poor fit]
